First the molecules themselves.
B1: Smad4, transfected, Q13485 1-552 (protein)
chain: MDNMSITNTPTSNDACLSIVHSLMCHRQGGESETFAKRAIESLVKKLKEKKDELDSLITAITTNGAHPSKCVTIQRTLDGRLQVAGRKGFPHVIYARLWRWPDLHKNELKHVKYCQYAFDLKCDSVCVNPYHYERVVSPGIDLSGLTLQSNAPSSMMVKDEYVHDFEGQPSLSTEGHSIQTIQHPPSNRASTETYSTPALLAPSESNATSTANFPNIPVASTSQPASILGGSHSEGLLQIASGPQPGQQQNGFTGQPATYHHNSTTTWTGSRTAPYTPNLPHHQNGHLQHHPPMPPHPGHYWPVHNELAFQPPISNHPAPEYWCSIAYFEMDVQVGETFKVPSSCPIVTVDGYVDPSGGDRFCLGQLSNVHRTEAIERARLHIGKGVQLECKGEGDVWVRCLSDHAVFVQSYYLDREAGRAPGDAVHKIYPSAYIKVFDLRQCHRQMQQQAATAQAAAAAQAAAVAGNIPGPGSVGGIAPAISLSAAAGIGVDDLRRLCILRMSFVKGWGPDYPRQSIKETPCWIEIHLHRALQLLDEVLHTMPIADPQPLD
modifications: here or on the partner: phosphorylated (sites not given)
B2: Smad4 R361H, Q13485 1-552 (protein)
chain: B1 chain with R361H
modifications: here or on the partner: phosphorylated (sites not given)
B3: Smad4 D351H, Q13485 1-552 (protein)
chain: B1 chain with D351H
modifications: here or on the partner: phosphorylated (sites not given)

Substitutions are numbered along the chain they refer to. Names and notes keep the numbering of the source. These are yes or no findings as the source states them, for the method shown. Binding seen in cells or lysates may run through a third protein. Some binding calls cover weakened binding; strength is not graded here.

The experiment concerns the target phosphorylated Smad2 (human (endogenous in IMR32 and BE(2)-C)), Q15796. Kind of experiment: co-IP; IMR32 and BE(2)-C cells transfected with Smad4, D351H or R361H; western blot for p-Smad1 and p-Smad2. The note with it: remark: other sources report otherwise. (Immunoblotting shows a protein as a band on a membrane.)
On to B1, for which the binding result is recorded as “binds”.

Turning to B2, the binding result is “no binding”. B3: the binding entry is recorded as “no binding”.

Values taken from PMC5011643.
